Test results taken from the supplement of paper PMC10037445.
Several values for one entry are separate records, joined by “and”; a condition that tells them apart may be missing. Identical values can stand only once. Over roughly 2,900 compounds, “NF-kB SEAP reporter activity, fold change vs agonist alone” has its median near 0.99; the highest 2% begin near 2.6. The list shows a part of the results.

Tests used:
RAW-Dual [1] = assay: NF-kB SEAP reporter activity, fold change vs agonist alone; higher = enhanced NF-kB activity
Method in brief: (§1)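 Library stock was pin-tooled at 50 nL into 384-well plates of RAW-Dual macrophages (50,000 cells/well, DMEM), followed 1 h later by a PRR agonist, and the cells were kept at 37 °C, 5% CO2. Supernatant collected after 20 hours was read for IRF by QuantiLuc luminescence and for NF-κB by QuantiBlue absorbance at 620 nm. Reporter activity is fold change over agonist-alone wells, and a well counted as cytotoxic when its IncuCyte confluency was below 70% of agonist controls in both mask sets.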

RAW-Dual [2] = assay: NF-kB SEAP reporter activity, fold change vs agonist alone; cytotoxicity flag (confluency mask): not cytotoxic; higher = enhanced NF-kB activity
Method in brief: as §1

RAW-Dual [3] = assay: NF-kB SEAP reporter activity, fold change vs agonist alone; cytotoxicity flag (confluency mask): cytotoxic (confluency <70% of control); higher = enhanced NF-kB activity
Method in brief: as §1

[4] = library stock concentration (final ~1000-fold dilution): 10 mM, cytotoxicity flag (confluency mask): not cytotoxic, agonist: Imiquimod (TLR7) […]
[5] = library stock concentration (final ~1000-fold dilution): 10 mM, cytotoxicity flag (confluency mask): not cytotoxic, agonist: MPLA (TLR4) […]
[6] = agonist: ODN 1826 (TLR9) 0.5 ug/mL
[7] = agonist: Pam2CSK4 (TLR2/6) 0.1 ug/mL
[8] = agonist: Pam3CSK4 (TLR2/1) 0.1 ug/mL
[9] = library stock concentration (final ~1000-fold dilution): 10 mM, cytotoxicity flag (confluency mask): cytotoxic (confluency <70% of control), agonist: Imiquimod (TLR7) […]
[10] = library stock concentration (final ~1000-fold dilution): 10 mM, cytotoxicity flag (confluency mask): cytotoxic (confluency <70% of control), agonist: MPLA (TLR4) […]

Cc1cc(/C=C/C#N)cc(C)c1Nc1ccnc(Nc2ccc(C#N)cc2)n1
NF-kB SEAP reporter activity (RAW-Dual [1]; [4]): 0.87 | NF-kB SEAP reporter activity (RAW-Dual [1]; [5]): 2.14

Cc1cc(/C=C/C#N)cc(C)c1Nc1ccnc(Nc2ccc(C#N)cc2)n1 (library stock concentration (final ~1000-fold dilution): 10 mM)
NF-kB SEAP reporter activity (RAW-Dual [2]; agonist: LPS (TLR4) 0.1 ug/mL): 1.08 | NF-kB SEAP reporter activity (RAW-Dual [2]; [6]): 1.06 | NF-kB SEAP reporter activity (RAW-Dual [2]; [7]): 0.19 | NF-kB SEAP reporter activity (RAW-Dual [2]; [8]): 0.429

Oc1ccc(/C=C/c2cc(O)cc(O)c2)cc1 (library stock concentration (final ~1000-fold dilution): 10 mM)
NF-kB SEAP reporter activity (RAW-Dual [2]; agonist: LPS (TLR4) 0.1 ug/mL): 2.17 | NF-kB SEAP reporter activity (RAW-Dual [2]; [6]): 1.44 | NF-kB SEAP reporter activity (RAW-Dual [2]; [7]): 0.986 | NF-kB SEAP reporter activity (RAW-Dual [2]; [8]): 1.06 | NF-kB SEAP reporter activity (RAW-Dual [3]; agonist: LPS (TLR4) 0.1 ug/mL): 1.71 | NF-kB SEAP reporter activity (RAW-Dual [3]; [6]): 1.4 | NF-kB SEAP reporter activity (RAW-Dual [3]; [7]): 1.03 | NF-kB SEAP reporter activity (RAW-Dual [3]; [8]): 1.31

Oc1ccc(/C=C/c2cc(O)cc(O)c2)cc1
NF-kB SEAP reporter activity (RAW-Dual [1]; [9]): 1.58 | NF-kB SEAP reporter activity (RAW-Dual [1]; [10]): 1.47 | NF-kB SEAP reporter activity (RAW-Dual [1]; [4]): 1.25 | NF-kB SEAP reporter activity (RAW-Dual [1]; [5]): 1.58

Cc1ncc(CCCN(C)C)cc1Nc1ncc2c(n1)-c1ccc(C(F)(F)F)cc1NC(=S)C2 (library stock concentration (final ~1000-fold dilution): 10 mM)
NF-kB SEAP reporter activity (RAW-Dual [3]; agonist: LPS (TLR4) 0.1 ug/mL): 1.53 | NF-kB SEAP reporter activity (RAW-Dual [3]; [6]): 0.206 | NF-kB SEAP reporter activity (RAW-Dual [3]; [7]): 0.559 | NF-kB SEAP reporter activity (RAW-Dual [3]; [8]): 0.528

Cc1ncc(CCCN(C)C)cc1Nc1ncc2c(n1)-c1ccc(C(F)(F)F)cc1NC(=S)C2
NF-kB SEAP reporter activity (RAW-Dual [1]; [9]): 1.07 | NF-kB SEAP reporter activity (RAW-Dual [1]; [10]): 1.64

CCOC(=O)C1=C(COCCN)NC(C)=C(C(=O)OC)C1c1ccccc1Cl (configuration not stated) (library stock concentration (final ~1000-fold dilution): 10 mM)
NF-kB SEAP reporter activity (RAW-Dual [3]; agonist: LPS (TLR4) 0.1 ug/mL): 2.23 and 2.05 | NF-kB SEAP reporter activity (RAW-Dual [3]; [6]): 0.736 and 1.01 | NF-kB SEAP reporter activity (RAW-Dual [3]; [7]): 0.785 and 0.751 | NF-kB SEAP reporter activity (RAW-Dual [3]; [8]): 0.888 and 1.41

COc1cc2c(cc1OC)C1Cc3ccc(OC)c(OC)c3CN1CC2 (configuration not stated)
NF-kB SEAP reporter activity (RAW-Dual [1]; [4]): 0.958 | NF-kB SEAP reporter activity (RAW-Dual [1]; [5]): 0.945

COc1cc2c(cc1OC)C1Cc3ccc(OC)c(OC)c3CN1CC2 (configuration not stated) (library stock concentration (final ~1000-fold dilution): 10 mM)
NF-kB SEAP reporter activity (RAW-Dual [2]; agonist: LPS (TLR4) 0.1 ug/mL): 1.16 | NF-kB SEAP reporter activity (RAW-Dual [2]; [6]): 1.06 | NF-kB SEAP reporter activity (RAW-Dual [2]; [7]): 0.911 | NF-kB SEAP reporter activity (RAW-Dual [2]; [8]): 1.13

COc1ccc(C2=NC(c3ccc(Cl)cc3)C(c3ccc(Cl)cc3)N2C(=O)N2CCNC(=O)C2)c(OC(C)C)c1 (configuration not stated) (library stock concentration (final ~1000-fold dilution): 10 mM)
NF-kB SEAP reporter activity (RAW-Dual [2]; agonist: LPS (TLR4) 0.1 ug/mL): 0.454 and 0.807 | NF-kB SEAP reporter activity (RAW-Dual [2]; [6]): 0.472 and 0.712 | NF-kB SEAP reporter activity (RAW-Dual [2]; [7]): 0.211 and 0.394 | NF-kB SEAP reporter activity (RAW-Dual [2]; [8]): 0.281 and 0.367

CCN(CC)CCNC(=O)c1c(C)[nH]c(/C=C2\C(=O)Nc3ccc(F)cc32)c1C
NF-kB SEAP reporter activity (RAW-Dual [1]; [9]): 0.949 | NF-kB SEAP reporter activity (RAW-Dual [1]; [10]): 0.803

CCN(CC)CCNC(=O)c1c(C)[nH]c(/C=C2\C(=O)Nc3ccc(F)cc32)c1C (library stock concentration (final ~1000-fold dilution): 10 mM)
NF-kB SEAP reporter activity (RAW-Dual [3]; agonist: LPS (TLR4) 0.1 ug/mL): 0.649 | NF-kB SEAP reporter activity (RAW-Dual [3]; [6]): 0.197 | NF-kB SEAP reporter activity (RAW-Dual [3]; [7]): 0.213 | NF-kB SEAP reporter activity (RAW-Dual [3]; [8]): 0.446

O=C(NCc1ccccc1)c1csc(Nc2ccncn2)n1
NF-kB SEAP reporter activity (RAW-Dual [1]; [4]): 0.928 | NF-kB SEAP reporter activity (RAW-Dual [1]; [5]): 0.935

O=C(NCc1ccccc1)c1csc(Nc2ccncn2)n1 (library stock concentration (final ~1000-fold dilution): 10 mM)
NF-kB SEAP reporter activity (RAW-Dual [2]; agonist: LPS (TLR4) 0.1 ug/mL): 0.844 | NF-kB SEAP reporter activity (RAW-Dual [2]; [6]): 1.01 | NF-kB SEAP reporter activity (RAW-Dual [2]; [7]): 0.988 | NF-kB SEAP reporter activity (RAW-Dual [2]; [8]): 1.33

C=CC(=O)Nc1cc2c(Nc3ccc(F)c(Cl)c3)ncnc2cc1OCCCN1CCOCC1
NF-kB SEAP reporter activity (RAW-Dual [1]; library stock concentration (final ~1000-fold dilution): 2 mM, cytotoxicity flag (confluency mask): not cytotoxic, agonist: Imiquimod (TLR7) […]): 1.3 | NF-kB SEAP reporter activity (RAW-Dual [1]; library stock concentration (final ~1000-fold dilution): 2 mM, cytotoxicity flag (confluency mask): not cytotoxic, agonist: MPLA (TLR4) […]): 1.18
